Values marked as one replicate rest on one cluster of the flow cell; about a third of the high ones do not repeat.
Tested on: ATP
Assay: switch fluorescence ratio, 500 uM ATP over buffer (Cy3 cluster intensity, sum of 5 cycles each) (fold (ratio)); higher = stronger signal-on switching upon ATP binding; sequences stand for … in TCGTCGGCAGCGTCAGATGTGTATAAGAGACAGTTTTTTTTTTTTTTTTTTTTTTTTT…TC
Conditions: aptamer strand: ATP DNA aptamer (quencher-CACCTGGGGGAGTATTGCGGAGGAAGG + anchor), 100 nM annealed; ATP concentration: 500 uM; one replicate
Procedure, shortened: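 Values give the fluorescence ratio for each switch-domain sequence, averaged from per-cluster ratios of summed target-cycle to summed buffer-cycle Cy3 intensity. The Cy3-labelled switching-strand clusters sat on a modified Illumina MiSeq flow-cell, were annealed to 100 nM quencher-labelled ATP aptamer, and were imaged in selection buffer, then after 15 min with 500 uM ATP at 22 °C. Five cycles ran with NaOH stripping and re-annealing between them, and clusters outside 100-1000 RFU were excluded.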
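Also: ATP exposure 15 min at 22 °C before imaging.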

Sequence | switch fluorescence ratio
ATGGAGAGGC | 0.99
GTGGCTGAGA | 0.999
GAAGTTGCTT | 0.982
CGAGGTCGAA | 1
AATGTTCG | 0.968
TTTGCTCTTG | 1.02
CTGTTTAAGA | 0.963
TAACCGGACC | 1.75
CGAGAAACTC | 1.03
ATTTGGCTTC | 0.977
ATCCAAGGCT | 1.04
GGAACGCACT | 1.15
TGCGACTTGT | 0.944
TAACAGATT | 0.991
CCCACGTGCG | 1.03
GCTGTTAGGC | 1
ATACTGTTAG | 1.05
TGCGCAATCA | 1.35
ACCACCGGGC | 1.17
CCGCCAACTA | 2.58
TCCTTAGCAG | 2.64
TCAATTGAGT | 1.01
GGCACACGGC | 1.06
GCAGGAGTTT | 0.996
ACGGCAGTTA | 0.969
CGGAGTTCG | 1.02

Sequence | switch fluorescence ratio
GGTTTAGTAT | 0.932
TAATGCACTT | 1.05
ATAAATGATG | 0.956
TGCAAGGTGA | 1.05
TATTGAATGC | 1.05
GCTGAGGTGT | 1.08
AGCGGGTCTT | 0.999
GAGGGCTTTC | 1.05
CGTAAGTCAG | 1.03
AGGGTGCATA | 1.02
CGCTTGATGG | 0.972
CAATCATGAA | 0.947
TAGACAGGC | 0.995
AGCGTTTTCT | 1.05
TGAGAGCGAA | 0.998
GAGTACTCGA | 1.02
TTTACATCGT | 0.987
GCCTAATGTA | 1.05
TCCGGTTCT | 1.02
CAGTTGCGCG | 1
AGACGTAGAG | 0.965
CCAGGGTTAC | 1.05
CAAGAAGTAG | 0.955
TTATACGGGA | 0.993
ATATCAGGGA | 0.997
GCTTTAACGG | 1

Sequence | switch fluorescence ratio
TCATGCGCGT | 1.05
GTAATACAAG | 1
AGTTAACAAG | 1.02
CAGCTCCTGT | 0.995
TATTCCGGGT | 0.994
TGCCCGGGTT | 1
CCAATGTGCA | 1.01
TAGCCACCGT | 0.998
AGCGGGGGCA | 1.02
GGCTTGGTGA | 0.986
AACAAACACT | 1.13
GACAGTGTAT | 1.04
GAGCTCGTAG | 1.01
CGCGCGCATA | 1.44
TAATCGGACT | 0.961
GTGTATGGAC | 0.978
TGCGCCGGGC | 1.03
GACTAACCTG | 0.934
GGGTCACAGC | 1.01
TTAAGGCGTA | 1
AGCTGAGGTC | 1.03
TAATCCTGGG | 0.991
TGGGGAGTC | 1.02
CTAGGCGTTG | 0.942
AATGCCCCTG | 1.05
TTTATGGAAC | 0.977

Sequence | switch fluorescence ratio
CTCATGGAGT | 0.946
TCGACAGGTG | 2.1
ACAGGGGTGA | 1.08
CGCATGACGA | 1.24
CTTTCGAGGC | 1.3
TCACCGAGTT | 1.05
ATAATAGAC | 0.969
AGCGAGTTGT | 1.03
CTATGAGGTA | 0.987
CAGTAGTCCG | 1.05
CAAAGGTGCT | 4.62
TTTCGTGCCC | 1.06
TACCGTA | 1.07
GGGCCATCGA | 1.01
TCGGTCACA | 1
CGACGGTGAT | 1.21
CATTAGTGCG | 0.978
AGGTCTGAGA | 1.02
TATCGGCCGG | 0.977
ACCTCATGAA | 1.05
TTATAAGCC | 1
AGGGCATGTC | 1.04
CTAAGTGATG | 0.997

— the supplement of paper PMC10126150
